According to the supplement of paper PMC7826260:
Some of the results follow. Viral Rep nickase domains cut single-stranded DNA in vitro for 1 h at 37 °C with 3 µM enzyme; only the middle of the 90-letter strands is printed. Values are log2 of uncut reads against the no-enzyme pool; the lower, the more was cut; hits are not called. Counts are relative to all reads; where an enzyme cuts many sequences, the uncut ones exceed 0.

Assays:
Test in all cases: uncleaved DNA left, log2 of reads against the no-enzyme library (log2 ratio); higher = less cleavage (more negative = more Rep cleavage of the k-mer); sequences stand for … in CTCGTCCG…ACCGGAGA
[1] = system: T1, Rep nickase domain of Muscovy duck circovirus
T1 sequence (residues 1-111, tag not shown): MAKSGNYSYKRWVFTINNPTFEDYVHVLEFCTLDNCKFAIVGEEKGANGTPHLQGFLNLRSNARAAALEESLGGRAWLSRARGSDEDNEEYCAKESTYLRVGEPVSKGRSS
Method: (§1)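 A pool of 90-nt single-stranded DNAs with seven random bases just before the constant AC of the nick site (name = the seven bases) was cut by 3 µM recombinant His6-SUMO-tagged Rep nickase domain (300 nM DNA, 50 mM HEPES pH 8.0, 50 mM NaCl, 1 mM MnCl2, 1 h, 37 °C, three replicates). Uncut DNA was amplified and sequenced.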

[2] = system: T2, Rep nickase domain of banana bunchy top virus
T2 sequence (residues 1-94, tag not shown): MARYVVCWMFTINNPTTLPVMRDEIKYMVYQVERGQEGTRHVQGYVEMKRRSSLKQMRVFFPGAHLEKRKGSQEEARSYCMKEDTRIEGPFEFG
Method: as §1

[3] = system: T3, Rep nickase domain of cabbage leaf curl virus
T3 sequence (residues 1-116, tag not shown): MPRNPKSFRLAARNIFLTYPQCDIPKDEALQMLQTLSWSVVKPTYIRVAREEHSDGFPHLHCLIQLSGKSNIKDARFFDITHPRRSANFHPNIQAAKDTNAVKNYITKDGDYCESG
Method: as §1

[4] = system: T4, Rep nickase domain of chickpea chlorotic dwarf virus
T4 sequence (residues 1-124, tag not shown): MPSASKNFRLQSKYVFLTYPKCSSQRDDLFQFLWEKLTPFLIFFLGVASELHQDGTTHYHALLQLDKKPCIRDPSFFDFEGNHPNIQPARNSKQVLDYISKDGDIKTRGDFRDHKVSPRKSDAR
Method: as §1

[5] = system: T5, Rep nickase domain of faba bean necrotic yellows virus
T5 sequence (residues 1-98, tag not shown): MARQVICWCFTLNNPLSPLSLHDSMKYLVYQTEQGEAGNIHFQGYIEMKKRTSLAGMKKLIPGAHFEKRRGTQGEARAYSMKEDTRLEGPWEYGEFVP
Method: as §1

[6] = system: T6, Rep nickase domain of maize striate mosaic virus
T6 sequence (residues 1-117, tag not shown): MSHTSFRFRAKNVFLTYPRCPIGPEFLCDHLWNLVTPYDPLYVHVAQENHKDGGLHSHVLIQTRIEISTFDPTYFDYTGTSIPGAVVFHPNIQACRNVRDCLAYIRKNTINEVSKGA
Method: as §1

[7] = system: T7, Rep nickase domain of porcine circovirus 2
T7 sequence (residues 2-116, tag not shown): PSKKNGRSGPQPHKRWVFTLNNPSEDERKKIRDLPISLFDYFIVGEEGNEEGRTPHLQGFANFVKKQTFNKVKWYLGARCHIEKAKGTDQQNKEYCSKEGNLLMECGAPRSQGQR
Method: as §1

[8] = system: T8, Rep nickase domain of tomato golden mosaic virus
T8 sequence (residues 1-124, tag not shown): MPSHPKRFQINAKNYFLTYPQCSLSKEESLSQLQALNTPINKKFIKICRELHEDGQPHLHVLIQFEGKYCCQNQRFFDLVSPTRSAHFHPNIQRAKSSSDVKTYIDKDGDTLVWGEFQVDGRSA
Method: as §1

[9] = system: T9, Rep nickase domain of tomato yellow leaf curl virus
T9 sequence (residues 1-136, tag not shown): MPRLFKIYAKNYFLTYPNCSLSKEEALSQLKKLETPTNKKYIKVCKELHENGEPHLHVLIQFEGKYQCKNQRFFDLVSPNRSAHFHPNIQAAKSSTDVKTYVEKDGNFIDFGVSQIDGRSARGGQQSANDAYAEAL
Method: as §1

[10] = system: T10, Rep nickase domain of wheat dwarf virus
T10 sequence (residues 1-137, tag not shown): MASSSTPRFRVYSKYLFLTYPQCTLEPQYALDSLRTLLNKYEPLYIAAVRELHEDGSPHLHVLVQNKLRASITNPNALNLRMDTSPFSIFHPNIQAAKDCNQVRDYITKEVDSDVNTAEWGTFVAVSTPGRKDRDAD
Method: as §1

Sequence	uncleaved DNA left (log2) [1]	uncleaved DNA left (log2) [2]	uncleaved DNA left (log2) [3]	uncleaved DNA left (log2) [4]	uncleaved DNA left (log2) [5]	uncleaved DNA left (log2) [6]	uncleaved DNA left (log2) [7]	uncleaved DNA left (log2) [8]	uncleaved DNA left (log2) [9]	uncleaved DNA left (log2) [10]
GGAACAG	-0.028	0.00138	0.806	2.05	0.000578	2.18	0.2	-0.0128	-0.0391	0.107
TGCTCGA	-0.0834	0.00376	-0.339	-0.657	-0.212	-0.941	-0.0712	-0.201	-0.206	-0.205
GTAGCGG	-0.0264	0.00421	0.18	0.858	-0.161	0.84	0.111	0.126	-0.206	0.0691
GAAGGAT	0.11	0.0798	0.272	1.62	0.0784	1.89	0.184	0.0755	-0.161	0.0196
CGACCTG	0.00515	0.0285	0.0631	0.671	0.0877	1.72	0.0112	0.0189	-0.00459	0.0665
GCATTAG	-0.0363	-0.121	-0.946	-0.379	-0.0388	-1.06	0.142	-0.113	-0.0979	-0.109
TGAAATC	0.0462	0.184	0.344	0.74	0.0204	0.519	0.128	0.16	0.104	0.181
GGTACTA	0.0171	0.0716	0.708	1.61	0.0346	2.14	0.0883	-0.0267	0.128	0.192
AGGGAGT	-0.00337	0.0614	0.272	1.38	-0.0439	1.74	0.0614	0.0883	-0.0603	0.071
ATGCCTC	-0.0726	-0.272	-0.0599	0.188	-0.14	0.456	-0.0861	-0.288	-0.249	-0.12
ACAGATC	-0.146	-0.0493	-0.164	-0.075	-0.132	-0.822	0.0725	-0.058	-0.244	-0.128
AAGACAG	-0.0436	0.0528	-0.0734	0.366	0.0322	0.374	0.117	-0.0134	-0.0755	0.12
ACCCGAT	0.108	-0.164	0.134	0.457	-0.095	0.295	0.037	-0.0969	-0.136	-0.0553
TGTAATG	0.04	-0.0194	-0.323	-0.219	0.0659	-0.639	0.153	0.0792	0.0665	0.0151
TAAGGAA	0.122	0.134	0.345	1.33	0.122	1.7	0.216	0.202	0.00712	0.104
CCTTCTC	-0.0479	-0.137	0.00545	-0.51	-0.0909	-0.731	-0.147	-0.242	-0.065	-0.178
AGTGCGG	0.177	0.0484	-0.0139	0.238	0.0547	0.378	0.225	0.0814	0.0427	0.0766
TTTGGGC	-0.0425	-0.0752	-0.0851	-0.259	-0.0565	-0.696	0.0771	-0.0831	-0.0431	-0.0623
TGCTATA	-0.0248	-0.0403	-0.057	-1.1	-0.0992	-0.428	-0.158	0.0433	0.067	0.0614
CTCTGAG	-0.018	-0.195	-0.719	-0.158	0.0866	-0.861	0.248	-0.0482	0.0674	0.0543
TAGTAAG	0.0572	0.00928	-0.814	-0.683	0.0444	-1.23	-0.158	-0.0605	-0.00926	-0.103
TACGCGT	0.0489	-0.097	-0.941	-1.5	-0.00694	-1.03	0.102	-0.0464	-0.0663	-0.207
CCTGTAA	0.257	0.168	0.0956	-0.451	0.144	-0.445	0.0632	0.0738	0.185	0.212
GTAGGCG	0.0297	0.0441	-0.664	0.411	0.108	-0.488	0.163	-0.0311	0.116	-0.136
CGGAGAC	-0.00299	-0.107	0.549	1.44	-0.128	1.73	0.174	-0.0214	-0.0503	-0.0177
TGTAACC	-0.00669	0.135	0.169	-0.00846	-0.0722	0.942	-0.928	0.0605	0.0375	0.0716
AGAGTCC	0.16	0.0756	0.421	0.652	0.104	0.552	-0.183	0.105	0.105	0.133
GCGACCG	0.0124	-0.0207	-0.155	0.049	-0.0368	-0.357	0.0003	0.0558	-0.0595	-0.0826
GACCATA	0.0546	0.00657	0.0488	-0.589	0.0315	0.48	-0.0273	-0.0641	0.102	0.0689
CTTTACG	0.0699	-0.0639	-0.914	-0.468	-0.0337	-1.04	0.135	-0.079	-0.01	-0.0695
